Experimental data reported in PubChem BioAssay AID1508624 (National Center for Advancing Translational Sciences (NCATS), 2021).
Among all 48,000 compounds or so, about 120 (0.25%) were called active. Another 4% or so got no clear call; they are omitted. The call rests on the fitted dose curve; in most records, active means well fitted activation curve with a large enough effect; inconclusive means small, poorly fitted or top-dose-only effect, or another doubt; inactive means no such curve, though single readings can be large or run the other way. Some of the results follow.

Experiment: Primary qHTS for Identification of Small Molecule Activators of Huntingtin-Antisense Promoter Activity; further: nearly all actives have a fitted effect of over 55% in size
Details: HEK293 HTT-AS promoter firefly luciferase reporter, 24 h; series mostly up to 57.5 µM; activity change, positive = activation: at the top concentration
Summary of the method: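 Firefly luciferase readout (Dual-Glo, 10 min RT) after 24 h, 37 °C compound exposure (final up to 57.5 uM) of HEK293 reporter cells cultured 24 h beforehand; PTC124 at 50 uM final as control inhibitor; activity scaled vehicle 0%, zero RLU -100%.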
Potency means the concentration at half of the fitted maximal effect.

SMILES | activity change, positive = activation | Potency
COc1cccc(CNC(=O)c2nn(-c3ccccc3Cl)nc2CO)c1 | inactive: -38.3% | 
Cc1ccccc1C(=O)NCc1nc2cccnc2n1Cc1ccccc1 | inactive: -8.17% | 
Cc1ccc2oc(-c3ccc(C)c(NC(=O)c4ccc(C(C)(C)C)cc4)c3)nc2c1 | inactive: 0.34% | 
COc1ccc(S(=O)(=O)c2c(Nc3ccc(F)cc3)sc(C(=O)c3ccc4c(c3)OCO4)c2N)cc1 | inactive: -20.7% | 
CCN1CCN(C(c2ccccc2)c2sc3nc(-c4ccco4)nn3c2O)CC1 (configuration not stated) | inactive: -5.2% | 
CCOc1ccccc1C(=O)Oc1c(Sc2ccccc2)c(C)nn1C(C)(C)C | inactive: -18.5% | 
CCOC(=O)CNC(=O)N1CCc2cc(S(=O)(=O)N3CCC(C)CC3)ccc21 | inactive: -10.2% | 
CCOC(=O)c1ccc(N2C(=O)c3n[nH]c(C)c3C2c2ccc(C(C)(C)C)cc2)cc1 (configuration not stated) | inactive: -6.69% | 
CNC(=O)C1CCC(Cn2c(=O)[nH]c3ccsc3c2=O)CC1 (configuration not stated) | inactive: -3.31% | 
Cc1ccc(NS(=O)(=O)c2ccc3c(c2)NC(=O)CCS3)cc1C | inactive: -38.4% | 
Cc1cccc(OC(=O)c2cc(-c3ccc4c(c3)OCCO4)on2)c1 | inactive: 18.9% | 
Cc1ccccc1-n1c(/C=C/c2c(C)n(C)c3ccccc23)nc2ccccc2c1=O | inactive: -16.8% | 
CC(C)(C)OC(=O)N1CCC(c2c(C(=O)N3CCN(c4ncccn4)CC3)cnn2-c2ccccc2)CC1 | inactive: 2.91% | 
CCOC(=O)c1cccc(NC(=O)c2cc(CN3CCOCC3)on2)c1 | inactive: 10.3% | 
CSc1ccc(CNc2ncc(-c3ccccc3)n2C)cc1 | inactive: -1.92% | 
CCN(CC)S(=O)(=O)c1ccc(C(=O)Nc2nc3c(Cl)cc(Cl)cc3s2)cc1 | inactive: -43.9% | 
CCOC(=O)c1ccc(NC(=O)COCc2cc(-c3ccc4c(c3)OCO4)on2)cc1 | inactive: 5.98% | 
CCC(O)c1cc2c(cc1NC(=O)c1cccc(Br)c1)OCCO2 (configuration not stated) | inactive: -9.59% | 
Cc1nc2ccccc2n1CCc1nc2c3ccccc3nc(SCC(=O)Nc3ccc(Br)cc3F)n2n1 | inactive: 0.189% | 
O=C(O)[C@H](Cc1c[nH]c2ccccc12)N1C(=O)c2ccccc2C1=O | inactive: -13.5% [at 116 µM, percent change from vehicle, -100% = no light] | 
CC(C)C12CN3CC(C(C)C)(CN(C1)C3c1ccc(Cl)cc1)C2=O (configuration not stated) | inactive: -11.9% | 
COc1ccc(-c2nc3ccccc3o2)cc1NC(=O)C(C)Oc1ccc(Cl)cc1Cl (configuration not stated) | inactive: -5.44% | 
CN1CCN(c2oc(-c3ccc(COc4ccc(Cl)cc4)o3)nc2C#N)CC1 | inactive: -29% | 
N#Cc1nc(-c2ccc(COc3ccccc3)o2)oc1NCc1ccccc1 | inactive: -21.6% | 

SMILES | activity change, positive = activation | Potency
CN(C)CCCN(C(=O)c1cccs1)c1nc2ccc(F)cc2s1 | inactive: 1.07% | 
Cc1ccc(CNC(=O)CSc2nc(=O)[nH]c3c2CCCC3)cc1 | inactive: -2.12% | 
O=C(CN1C(=O)CCc2cc(S(=O)(=O)N3CCOCC3)ccc21)Nc1cccc(Cl)c1 | inactive: -17.7% | 
CCCSc1ncc(Cl)c(C(=O)N(Cc2ccc(N(C)C)cc2)C2CCS(=O)(=O)C2)n1 (configuration not stated) | inactive: -30.7% | 
COc1ccc(NC(=O)Cn2cnc3sc(C)c(S(=O)(=O)N4CCN(C)CC4)c3c2=O)cc1Cl | inactive: -0.987% | 
Cc1ccc(-n2ncc(C(=O)Nc3ccc4c(c3)OCCO4)c2C2CCN(C(=O)OC(C)(C)C)CC2)cc1 | inactive: -62.5% | 
COc1ccc(Br)cc1CNC(=O)CSc1cc(=O)n(C)c2ccccc12 | inactive: -15.1% | 
Cc1ccccc1-c1noc(-c2cc3ccccc3oc2=O)n1 |  | active: 2510 nM
Cc1ccc(-c2nc(CS(=O)(=O)CC(=O)N3CCN(c4cccc(C)c4C)CC3)c(C)o2)cc1 | inactive: -22% | 
CCCc1ccc(OC(C)C(=O)Nc2sc3c(c2C(=O)OC)CCCCC3)cc1 (configuration not stated) | inactive: -12.8% | 
CC1CCN(S(=O)(=O)c2ccc3c(c2)oc(=O)n3CC(=O)NC(C)c2ccccc2)CC1 (configuration not stated) | inactive: -34.5% | 
CSc1nc(Nc2cccc(C)c2)c(C#N)c(-c2ccccc2)n1 | inactive: -3.19% | 
CNc1c(NC(=O)c2cc(OC)cc(OC)c2)c(=O)oc2ccccc12 | inactive: -1.32% | 
CCOC(=O)c1cnc2ccc(OC)cc2c1NCCc1ccc(OC)c(OC)c1 | inactive: -39.7% | 
Cn1c(SCC(=O)N2CCCc3ccccc32)ncc(C(=O)Nc2ccc(F)cc2)c1=O | inactive: 4.92% | 
CCCCNC(=O)c1nn(-c2ccc(C)cc2)c(=O)c2c1c1ccccc1n2C | inactive: -4.77% | 
Cc1cccc(CNC(=O)c2cccc(NC(=O)N3CCSc4ncccc43)c2)c1 | inactive: -13.6% | 
O=C(O)CC(O)C(=O)O (configuration not stated) | inactive: -3.02% | 
COc1ccc2c(c1)c(=O)c(S(=O)(=O)c1ccc(Cl)cc1)cn2C | inactive: 0% | 
Cc1ccccc1CNC(=O)C1CCN(c2nnc(-n3c(C)ccc3C)s2)CC1 | inactive: 1.17% | 
Cc1cccc(NC(=O)N2CCC(CN3CCC(C)CC3)CC2)c1C | inactive: -4.32% | 
CCOC(=O)c1c(C)[nH]c(C)c1S(=O)(=O)N1CCCC(C(=O)Nc2ccccc2OCC)C1 (configuration not stated) | inactive: -16.5% | 
CCc1cccc(CC)c1NC(=O)C(CC)n1nc(C)n2c(cc3cc(C)ccc32)c1=O (configuration not stated) | inactive: -3.85% | 
